Over roughly 33,000 sequences, “E-score (-0.5 to 0.5)” has its median near -0.016; the highest 2% begin near 0.31. The list shows a part of the results.
Biological target: Cst6 (UniProt P40535)
Assay: PBM E-score (8-mer binding enrichment) (E-score (-0.5 to 0.5)); higher = stronger / more preferred TF binding; most listed sequences are background and not binding sites
Details: protein concentration: 200 nM; construct: GST-DNA-binding domain
Outline: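 The E-score, a modified Wilcoxon-Mann-Whitney statistic, was computed by the Universal PBM Analysis Suite for every ungapped eight-base word pooled with its reverse complement. Scans behind it were normalised with masliner after bound GST-tagged yeast transcription factors were detected with fluorescent anti-GST. The proteins, at about 100-200 nM, had been applied to universal all-10-mer Agilent arrays made double-stranded by primer extension.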

Sequence	PBM E-score
CACACAGG	0.0469
GATGTTGC	0.0844
ACAGACTC	-0.117
GCTGCCAA	-0.0668
CACCCACG	0.0488
ATATGGCA	0.125
ACCAGTTA	0.138
CGCTGTCA	-0.107
AATCCTCG	-0.0864
AGTGTCTC	-0.243
CCGTTTAA	0.179
TGCACAAA	0.112
AGCCATAC	-0.0767
CCCGGATC	-0.117
CAGGGTCG	-0.223
CTCTTTTA	-0.118
AAAGATCC	0.011
AGGTTCCG	-0.124
CGGAATAA	-0.218
ATGGTAAA	0.138
AAGATCGT	-0.0305
CTTTTTAC	0.183
CACTGCAC	-0.0826
AGTTCTTG	0.0558
CGAAAATA	0.189

Sequence	PBM E-score
GAGAGTTA	0.027
ATCTCTTC	-0.0289
ACTCGCGC	0.0551
AGATCAGC	-0.0995
CCATTACC	-0.00808
AAACTTAT	0.27
AGGCAAGA	-0.0426
TGGGTCAA	-0.177
CTTTATTA	0.221
CATCCGCA	0.228
CGACGACG	0.0651
CACGTTCC	-0.207
ACCGGTTC	-0.179
CATCTAGC	-0.0725
ATGAAGCG	-0.149
CGCGACGA	0.0474
CAAGCTAG	-0.212
CAAACACA	0.136
AGGTCGCC	-0.0626
AGAGTAGA	0.00826
TATAATAA	0.282
AGACCTTA	-0.028
AGATTACG	0.386
TTTCCAAA	0.0192
CCAATGGG	-0.39

Sequence	PBM E-score
GTTGATGA	0.309
TATATAAA	0.298
ACCTCACC	0.126
CATTCTCA	0.245
ACTCATGA	0.251
CACGGCCG	0.226
GATTTTGA	0.254
AATTTATG	0.216
AGGACGAC	-0.204
CATACGCA	0.147
GTCAGCGA	0.0241
AATCAGGG	-0.329
ACGGGACG	-0.0627
ATGAATTG	0.174
GCACCCCA	-0.131
ATATTCAG	0.00607
CCCACCAG	-0.282
ATGAGTCA	0.238
CAAGTCCG	-0.229
AAATATGT	0.298
AAAATACT	0.157
AGGTCTAA	-0.0129
ACATGCCC	-0.153
CCCGTAGA	-0.321
ACCACGGT	-0.152

Sequence	PBM E-score
ACAATCGC	0.123
AACTAAGG	0.0828
GGCTTTGA	0.0448
CGACCCTC	-0.341
AAGGCGTG	0.0823
GACGCCCA	-0.0679
AGGCGAAC	0.0412
GAGAAGCA	-0.16
CTAATAAA	0.169
AGGCCAAT	-0.11
CCGTTAGG	-0.0476
AGCTAACA	-0.0347
CAATAGAC	0.118
ATCCCTAC	0.0151
GAGAGGGA	-0.244
ACATCCCA	-0.293
GTGTTGGA	-0.133
CACCTTAA	-0.0664
CGGGTCAA	-0.154
CATCGTAC	0.114
GTCGACAC	0.0472
TACGTAAA	0.42
AATTATGG	0.0357
TGGTCAAA	0.139
CCAGCCCC	-0.249

Sequence	PBM E-score
TGTGAACA	-0.0456
ACAAGGGA	-0.196
ACGCTCGA	-0.0322
AGTTGTAG	0.00052
GCTGCGCA	-0.273
AGCTGACA	-0.0546
AGCGGCCT	-0.215
CCGTATTC	0.107
GCTAAGTA	0.11
CCTTTGCA	-0.068
GATTCTAA	0.0395
GTCATTGA	0.391
AAATCGGA	-0.105
AAGTCCGG	-0.178
ACCGCACA	-0.102
ACCTATTC	0.0432
AAAGGCTA	-0.0383
GCGTCACA	0.417
ACGTCGGC	0.0982
CCTCCAAA	-0.125
AGTAAGAG	-0.00433
CACACCGC	-0.118
AACATAGG	0.0366
TAAACTGA	0.157
GGACTAAA	-0.124

Sequence	PBM E-score
CGATCGGC	0.124
AAAGTCGC	0.107
AATCAGAG	0.136
CGGACTGA	-0.0715
GTAACACA	0.169
AACAGTAG	0.128
CGCCCCTA	0.00628
CAAGAGAA	0.0843
ACGACGTC	0.218
CGTACTGA	0.0783
ACGGAGCT	-0.159
ATTTTCTG	0.115
AAGCCCCA	-0.303
ATAACTGC	0.0217
AGCAAGTC	-0.17
ATCTATCG	-0.00165
GCCTAGGA	-0.179
CAATTGAG	0.169
CTGCTTGC	-0.153
ACACCCCG	-0.285
ACAGCACA	0.172
GCCCCGCA	-0.183
CGGCTTTA	0.0731
ACTTAGCT	-0.266
ATCTGTAA	0.0335

Sequence	PBM E-score
AACTAACG	0.141
ACCTGTCT	-0.266
GCGAGAAC	-0.0934
TACGGCCA	-0.0107
GCATCCGA	-0.118
AGTCGACC	-0.227
ATGGGCAG	-0.151
CCCGAAGA	-0.151
CCAAACGA	-0.123
TAAACTTA	0.0492
ATGGGAGA	-0.136
CTGTTTCA	0.0336
GGAGAACC	-0.242
AGGCGCGG	0.0345
GTGCCAAC	-0.144
CAGAGCGC	-0.103
AGATCCAT	-0.172
AAAATCGT	0.178
GTTCGACA	0.155
AGCTTTGG	-0.168
AAACAGAT	0.204
ACGTAATG	0.476
CTGTCTCA	-0.176
CAATATCC	0.0594
CCGGCTCC	-0.31

Sequence	PBM E-score
AGGGCCAC	-0.187
AGTGCGGA	0.167
AGGGTCCC	-0.326
ATCCCTGA	-0.023
GCGAAGCC	-0.263
CCGAAAAG	0.0209
AGACTCCA	-0.203
AAGTACCA	-0.00592
TATAGGCA	-0.112
TAGTTGAA	0.0809
TCACGCCA	0.128
GTCCAAGA	-0.294
AATAATAA	0.313
GCGTTTTA	0.0306
CACGATAC	-0.133
AATTAAAT	0.219
CAGCCGAG	-0.197
CCATTTCC	0.0501
GCGAGCGC	-0.213
GCACTCAC	-0.131
GGCTTAAA	0.115
CATTGGGC	-0.137
ATCCTTCA	0.111
GACTTCAC	0.0486
CGTCCACC	-0.231

Sequence	PBM E-score
AAAACAAT	0.243
CTCTCAAA	0.117
AAGCTGGT	-0.101
TGAAGCCA	-0.065
ATAACAGC	0.193
CCACGTTC	-0.211
ATTGCTTG	-0.0329
GGTAAGGA	-0.0829
AATCCAGT	-0.0432
CAACAGGC	-0.192
CCTTAGGA	0.036
TATTTCAA	0.318
AGGTCTTG	-0.104
AAGGGGGA	-0.318
ATTGTATA	0.218
TGGCAACA	0.00122
CGGAGGAA	-0.344
AAAGTTGC	0.104
TACCGTCA	0.345
TAGCTCAA	-0.125
AGGGCCCC	-0.34
TGAGCGCA	-0.101
CGCCCAGA	-0.331
ACCGTTTG	0.0108
AGGGGTCC	-0.378

Sequence	PBM E-score
CCTGGCGA	-0.314
GGAACGTA	-0.167
CGCGGAAG	-0.133
GCATTGCC	-0.126
AATAGTTC	0.175
ACCGGTGC	-0.105
AATAACTC	0.00793
CCGCTAAA	-0.0858
CCCAGCCC	-0.384
AAGTATCG	-0.0368
GGATCCAA	-0.0467
CATGATGA	0.342
TACGCGAA	0.135
AAGGCGGT	-0.0672
AGGCTAGG	-0.258
TTGCACAA	0.0726
CGATCATC	0.123
AGCATGTG	-0.174
GCCAGGCA	-0.0943
CACCCTTA	-0.097
ACGTCAAA	0.389
GTATGATA	0.277
AGCCTAAT	-0.0628
AATATTAA	0.334
ATATATGA	0.234

Sequence	PBM E-score
AACAACGC	0.114
CGGTCCAG	-0.242
ACGCTAGG	-0.196
CTTTCGTA	0.203
GACGTACC	0.349
AGCTCTTG	-0.129
ATTAAAGG	0.0957
AGTGCTGA	-0.124
ACGGCGGC	0.156
CCCTTACC	-0.0999
ACGAACCG	0.0117
GAAACTTC	0.0326
ATCCGTCC	-0.152
CGGGTACC	-0.297
ATTTCCAC	0.22
CACGTCAA	0.366
ATATCCAT	0.146
AATTGGTC	0.112
AGATCTAT	-0.00275
AGCGTGAC	0.259
CAGGAACC	-0.334
CTCTTCCC	-0.178
AGGAGGAA	-0.108
ACCCAAGT	-0.173
ATACTGGG	-0.216

Sequence	PBM E-score
AACTAGTC	-0.123
AACGATCG	-0.0398
AAGCTTGG	-0.2
ACGCCATG	0.219
CGCTGGTA	-0.141
AACCACCT	-0.0544
AGGTGAGG	-0.0942
CCCGGCAA	-0.171
GCCCTGCC	-0.237
AGAAGTCC	-0.185
CTGAACGC	-0.215
CAATACGC	-0.00637
CCGGCCGG	-0.0312
GGTGACAA	0.27
GCATCACC	0.231
TTCCTAAA	0.00834
ACTCTAAA	0.161
CTGAAGTC	-0.0806
CATAATCG	0.2
ATTAAGTC	0.222
CTACCGCA	-0.0718
AAGAGGTG	0.133
AGGTATTA	0.104
ACTACTAG	0.0115
GCTTGCCA	0.0626

Sequence	PBM E-score
AGCGCGCT	-0.107
TCGGCGAA	-0.12
TCCTAAGA	-0.059
GTTGTAAA	-0.0289
ATATGATG	0.333
AGGGCAGC	-0.211
AAACATGG	-0.0699
ATGCACAA	-0.0724
ACCAGCGC	-0.076
GCTTGATA	0.162
GAATAAAA	0.216
CGTCGGTA	0.00151
AGTCACCC	0.117
ATATCGGG	-0.0486
AATGAAGT	0.254
TCAAATGA	0.214
GCATACAA	0.178
AACGGGAA	0.107
ACGTGTAG	-0.0679
ACCACGTG	-0.00605
GCATCCCC	-0.246
GGACTCTA	-0.217
ACGGCGAG	0.18
ATGAGGAC	-0.135
GCCATCGC	-0.244

Sequence	PBM E-score
AGATAATG	0.158
CGTTTGCC	0.0166
ATTATTAA	0.255
CACGCCGG	-0.0575
TGAAAAAA	0.235
ACAATCGA	0.0415
ACGCGCGG	0.119
CTCATAGA	0.0631
TATACTGA	0.267
ACAAAGTG	-0.1
TGATTCAA	0.163
CACATGGA	-0.00127
ATGAATAC	0.195
TCGCCCAA	-0.157
CAACCGGG	-0.107
TGTGATAA	0.264
AAGTGCAA	-0.0748
CGTGACCC	-0.0116
AGTGGCCG	-0.187
